The supplement of paper PMC11417369
Some of the results follow.

What follows are sequences tested on PF3D7_0420300 AP2 domain 1 (GST-tagged) (assay: gcPBM binding intensity (ln(normalized median fluorescence intensity)); higher = stronger DNA binding).
Summary of the method: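 After 1 h on an Agilent 4 × 180k array of primer-extended double-stranded 36-bp intergenic genomic probes and negative controls, bound GST-tagged P. falciparum DNA-binding domains were detected with Alexa488 anti-GST antibody and scanned at 488 nm. The domains had been expressed in E. coli, and binding took place in 1× PBS with 1% milk, 0.2 mg/ml BSA, 0.5% salmon testes DNA and 0.03% Triton X-100. Binding intensity is the highest Masliner-normalised natural-log median intensity across replicate spots of either probe orientation.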

Row | Sequence | gcPBM binding intensity (ln)
1 | AAATGTGAACTATAATAATTTCAACGTCTGATATAA [TGCATGCA_negctrl_site440] | 9.15
2 | AAATTTATAAAGAACACACACATATATATATATATA [CACACA_site48] | 9.83
3 | CAAAACCTAATATGTACACACATATACATCACACTT [CACACA_site7480] | 9.72
4 | TTTCTTTCGAATGCTTCACACATTACTCTTAAATAG [CACACA_site5265] | 9.26
5 | ATTTTGTTATTATATATATATATATATATATATATA [XGTACX_negctrl_site590] | 9.07
6 | ATTTTAAATTAAATTACACACTACGAATAATATATT [CACACA_site4016] | 9.35
7 | ATATTTCTGTCAAGCACACATAATATTAATATATGT [CACACA_site318] | 9.24
8 | AATAAATTATATATCACACATATATATTTATATTTA [CACACA_site5964] | 9.12
9 | ACATATAAAATATTCACACACAAGTTATAGTTCTCG [CACACA_site3626] | 9.76
10 | ATTTCCCCAACGTGGGTGCATATATTTATGTGTGAA [GTGCAC_site9439] | 9.27
11 | ATTATGTGAGGTAACTAAATATGTACGTAACGAAGA [CACACA_negctrl_site1400] | 9.48
12 | ATTATATTTTTAAGTACACACATATAAATAAATATA [CACACA_site7682] | 9.23
13 | TATTAATTATTTTACTGTACTAATAATACTTTTATT [XGTACX_site2179] | 9.27
14 | TAATGTATAATTAATCGTACATTAGATTGTTGTGTT [XGTACX_site52] | 9.31
15 | ATATATATATATGTGTGTACTTAAAAATATAATGCA [XGTACX_site7753] | 9.59
16 | ATATATATATATTATACACACGCCGAAAAAATAAAA [CACACA_site1551] | 9.53
17 | TTACGAAAAAACAAGAGTACATGATGTTATAAAATA [XGTACX_site1412] | 9.36
18 | TTTATTTTATCTAAAAGTACTTAAATTAGTGTATTT [XGTACX_site5696] | 9.04
19 | CGTTGTAGGGAATGTAGTACAGTTATTATTTTATTA [XGTACX_site2429] | 9.42
20 | TCATACATTTTCAGCCTGCACTTATATTTAATAATA [GTGCAC_site9863] | 9.31
21 | TATATATATAAATACACACACACACCGATATATATA [CACACA_site5408] | 10.1
22 | AAAAAAAAAAAACACACACACACACCGAAATATATA [CACACA_site4261] | 10.2
23 | TTCAGCATAAACACTTGTACATATATACTAAAAATT [XGTACX_site7272] | 9.17

Row | Sequence | gcPBM binding intensity (ln)
24 | AATTTTTTTTTTTTTTTTTCTTTTGTAATAAACCAT [XGTACX_negctrl_site334] | 9.15
25 | TAAGGAAAAAATTATAGTACATAATAAATGTATATA [XGTACX_site8328] | 9.14
26 | ATAAATATATTTCACGCACACACACCCCAAATAAAT [CACACA_site9272] | 9.99
27 | CAAATTTTTTATTAAACACACAAACATATATTTATA [CACACA_site6992] | 9.12
28 | AAAAAAGAAAAGAAATCATGAAAGAATCAAATAAAG [CACACA_negctrl_site1771] | 9.36
29 | TTTTTATATATATTCTCACACACTTTTTATTTTAAC [CACACA_site657] | 9.65
30 | TATTAACAAAATTTTTAACACACAAAAAAAAAAAAA [CACACA_site8542] | 9.29
31 | TTTTTTGTTATATTTGTGCGCAAAAATTGCTGCTTG | 9.01
32 | CATAATATATTTTATGCATGCAAAGCAACCTTTTGA [TGCATGCA_site715] | 9.01
33 | AAAATTTATGTAAAATGTACATACATAAATAAAGAT [XGTACX_site4339] | 9.36
34 | TTTGTAAAATAATATCTTTCATGTCCTTACTAATTA [GTGCAC_negctrl_site145] | 9.21
35 | ATTATATATATATATAAACACACATAAATATAAATA [CACACA_site8291] | 9.56
36 | TATTTATTTAAAGGCACACATATTTTTATACTTTCT [CACACA_site3163] | 9.34
37 | GAAAAAAAAAAAAATACACACAAATTGGTATATAAT [CACACA_site4369] | 9.56
38 | AATACTCTATTTTATAGTACATATATTATTAATCAC [XGTACX_site6622] | 9.28
39 | TAGCTCGTTCGGAGCACACACATATAAATAAATATA [CACACA_site7002] | 9.2
40 | TATCAAATCCAAAGGGGTACATTTTGTTGTCCTAAT [XGTACX_site5575] | 9.13
41 | TAGGGATTATACCACACACACATACCCATAAATATA [CACACA_site5719] | 9.85
42 | ATAGACAGCGCACAAACACACAAACACGCACGCACA [CACACA_site6349] | 9.6
43 | TGTTTTTTATTTAATTGTACGAATTAAAAAAAATAA [XGTACX_site3009] | 8.78
44 | AATATTCATATGCAGGTGCATTAATTTTTATTAATT | 9.22
45 | TTCCAACCATAGTATTCACACATTGTTTTATTCCAT [CACACA_site4927] | 9.5
